Laboratory results as given in PubChem BioAssay AID1345083 (National Center for Advancing Translational Sciences (NCATS), 2018).
“And” between values parts separate entries of the source, which are not always exact repeats. Equal values may be shown once. Screen size: about 94,000 compounds; about 6,200 (6.6%) were called active. The inconclusive results got no clear call from the source; some entries with a clear call stand among them for comparison. The call rests on the fitted dose curve; in most records, active means well fitted inhibition curve with a large enough effect; inconclusive means small, poorly fitted or top-dose-only effect; inactive means flat fitted curve, though single readings scatter. Potencies beside an inconclusive call are fits to weak or partial responses and may not hold up.
Potency means the concentration at half of the fitted maximal effect; tags describe the fitted curve by direction and shape.

Experiment: Cytotoxic Profiling in HEK 293 Cell Line of Diverse Libraries Using Quantitative High-Throughput Screening; further: nearly all actives have a fitted effect of over 60% in size
Conditions: HEK 293 viability, ATP luminescence (CellTiter-Glo), 48-72 h; series mostly up to 115 µM
Procedure, shortened: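 HEK 293 cells seeded at 250 cells/well were exposed to compound for 48 or 72 hr at 37 degree Celsius. Viability taken as ATP content by CellTiter-Glo luminescence.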
For `COc1cccc(-c2cc3c(=O)n(CCNC(=O)c4ccc5cc[nH]c5c4)ccn3n2)c1`, the Potency was inconclusive: 20 µM [inhibitor, full curve, poor fit]. With `CC(C)CCN1CCn2c(nn(-c3ccc(Cl)cc3)c2=O)C1` the Potency was inconclusive: 79.4 µM [inhibitor, partial curve]. With `Cc1cc(C(=O)N2CCNCC(O)C2)c(-c2ccccc2)o1` (configuration not stated) the Potency was “inactive”. For `CNCCN1C(=O)CC[C@H]2CN(Cc3cc(C4CCCCC4)no3)CC[C@H]21`, the Potency was inconclusive: 70.8 µM [inhibitor, partial curve, poor fit]. For `COc1ccnc(-c2nnc3ccc(Nc4cc(OC)c(OC)c(OC)c4)nn23)c1`, the Potency was inconclusive: 100 µM [inhibitor, partial curve]. For `COc1ccc(CCNC(=O)C2CCCCC(=O)N2C)cc1OC` (configuration not stated), the Potency was “inactive”. With `c1ccc(CN2CC[C@H](c3nc4ccccc4o3)C2)nc1` the Potency was “inactive”. With `CO[C@@]1(C)C[C@@H](O)C12CCN(C(=O)CN1CCc3ccccc3C1)CC2` the Potency was “inactive”. With `CC(=O)N1CCCN(Cc2nnc(C(=O)N3CCC[C@@H]3C(c3ccccc3)c3ccccc3)n2-c2ccccc2)CC1` the Potency was inconclusive: 70.8 µM [inhibitor, partial curve, poor fit]. In the case of `Cc1ccccc1CN1CCC2(CC1)OCCN(Cc1ccccc1)C2=O`, the Potency was inconclusive: 112 µM [inhibitor, partial curve]. In the case of `CCOc1ccc(NC(=O)Cn2c(Nc3cc(C)cc(C)c3)nc(C)cc2=O)cc1`, the Potency was inconclusive: 70.8 µM [inhibitor, partial curve, poor fit]. With `CC(C)c1cccc(NC(=O)Cn2cccc2-c2nc(-c3ccc4c(c3)OCO4)no2)c1` the Potency was inconclusive: 44.7 µM [inhibitor, partial curve, poor fit]. With `O=C(Nc1ccc2nnc(-c3ccc(C(=O)N4CCCCC4)cc3)n2c1)C1CCC1` the Potency was inconclusive: 44.7 µM [inhibitor, partial curve, poor fit]. In the case of `O=C(NCC(=O)N1CCN(c2ncccn2)CC1)c1ccc(-c2cnc3ccccc3c2)cc1`, the Potency was inconclusive: 22.4 µM [inhibitor, full curve, poor fit]. In the case of `CC(C)C[C@@H]1N[C@H](C(=O)N2CCOCC2)Cc2cn(Cc3nccn3C)c3cccc1c23`, the Potency was “inactive”. For `N#Cc1ccc(CN2CCCCCNC(=O)[C@@H]3CCC[C@@H]32)cc1`, the Potency was active: 79.4 µM. In the case of `Cc1cccc(Cl)c1NC(=O)Cn1ccn2nc(-c3ccccc3)c(CO)c2c1=O`, the Potency was inconclusive: 50.1 µM [inhibitor, partial curve, poor fit]. In the case of `O=C(NC1CCCCCC1)c1cn2cc(-c3cccc(C(F)(F)F)c3)sc2n1`, the Potency was “inactive”. In the case of `O=C(c1cc[n+]([O-])cc1)N1CCC2(CCCN(CCC3CCCCC3)C2)C1` (configuration not stated), the Potency was inconclusive: 89.1 µM [inhibitor, partial curve, poor fit]. For `COc1cccc(C(=O)N(C)Cc2ccc(-c3ccccc3)cc2)c1`, the Potency was active: 70.8 µM. With `O=C(CN1C(=O)C(c2ccccc2)=NC12CCCCCC2)Nc1cccc(Cl)c1` the Potency was inconclusive: 35.5 µM [inhibitor, partial curve, poor fit]. In the case of `O=C1Cc2c(-c3ccccc3Cl)n[nH]c2CN1Cc1ccccc1`, the Potency was inconclusive: 100 µM [inhibitor, partial curve, poor fit]. For `COc1ccccc1CN1CCC(N2Cc3cnc(C)n3C2=O)CC1`, the Potency was inconclusive: 50.1 µM [inhibitor, partial curve, poor fit] and inconclusive: 126 µM [inhibitor, single point]. For `CCNC(=O)N1CC(C(=O)NCc2cccc(C)c2)CC(c2ccc(F)c(C)c2)C1` (configuration not stated), the Potency was inconclusive: 56.2 µM [inhibitor, partial curve, poor fit]. In the case of `CN1c2cc(C(=O)NCc3ccncc3)ccc2C(=O)N2CCCCC21` (configuration not stated), the Potency was inconclusive: 14.1 µM [inhibitor, full curve]. With `O=C(NCCN1CCOCC1)c1cn2cc(-c3ccc(F)cc3)sc2n1` the Potency was “inactive”. For `COc1ccc(C(=O)N2CCOC3(CCN(C(=O)c4c(C)noc4C)CC3)C2)cc1`, the Potency was inconclusive: 89.1 µM [inhibitor, single point]. In the case of `CCn1nc(C)c(CN(CCOC)C(=O)C2COc3ccccc3C2)c1C` (configuration not stated), the Potency was inconclusive: 89.1 µM [inhibitor, single point]. With `COCCNC(=O)c1cc(-c2ccc(F)cc2OC)cc2ncn(C)c12` the Potency was “inactive”. With `O=C(NCC(=O)N1CCCC1)c1cccc(-c2ccc(C(F)(F)F)cc2)c1` the Potency was inconclusive: 12.6 µM [inhibitor, full curve, poor fit]. For `CCn1cc(-c2ccc(OC)cc2)cc1C(=O)N1CCCCCC1`, the Potency was inconclusive: 56.2 µM [inhibitor, partial curve, poor fit]. For `Cn1ccnc1-c1ccc(N2CCC(C(O)Cc3ccccc3)CC2)nn1` (configuration not stated), the Potency was inconclusive: 7.94 µM [inhibitor, full curve, poor fit]. With `O=C(CN1C(=O)NC2(CCCCC2)C1=O)Nc1ccc(Cl)cc1` the Potency was inconclusive: 56.2 µM [inhibitor, partial curve, poor fit]. With `COc1cccc(S(=O)(=O)N2CCn3ncc(C(=O)NCc4ccc(Cl)nc4)c3C2)c1` the Potency was “inactive”. For `O=C(CCCc1ccccc1)N1CCC(Cc2nncn2-c2ccccc2)C1` (configuration not stated), the Potency was “inactive”. For `O=C(NCCCc1ccccc1)c1n[nH]c2c1CN(C(=O)c1ccc(Cl)cc1)CC2`, the Potency was inconclusive: 89.1 µM [inhibitor, single point]. With `CCOc1cccc(-c2nc(C(=O)NCCOC)cs2)c1` the Potency was inconclusive: 89.1 µM [inhibitor, single point]. In the case of `Cc1noc(C)c1S(=O)(=O)N1CCC(N2CC(OCC3CC3)C23CCCCC3)CC1` (configuration not stated), the Potency was inconclusive: 39.8 µM [inhibitor, partial curve, poor fit]. In the case of `O=C(C1CCCO1)N1CCC(N(Cc2ccccc2)C2CCOCC2)CC1` (configuration not stated), the Potency was inconclusive: 89.1 µM [inhibitor, single point]. For `CCOc1ccc(C(=O)N2CCC[C@H]2c2nc(-c3ccccc3Cl)no2)cc1`, the Potency was inconclusive: 25.1 µM [inhibitor, full curve, poor fit]. In the case of `O=C(NCC(F)(F)F)c1ccc2oc(-c3ccncc3Cl)nc2c1`, the Potency was inconclusive: 56.2 µM [inhibitor, partial curve, poor fit]. In the case of `CCOC(=O)C1=C(C)N=C2SC=C(CC(=O)N3CCOCC3)N2C1c1cccc(OC)c1OC` (configuration not stated), the Potency was inconclusive: 100 µM [inhibitor, single point]. With `COc1cccc([S+](=O)([O-])N2CCC3(CC2)C(=NC2CCCC2)NC(=O)N3c2cc(F)cc(F)c2)c1` the Potency was inconclusive: 79.4 µM [inhibitor, partial curve, poor fit]. With `O=C(Nc1ccccc1)N1CCC(N2C(=O)C(OCC3CC3)C23CCCCC3)CC1` (configuration not stated) the Potency was inconclusive: 100 µM [inhibitor, single point]. In the case of `CCOCCOC1CCN(C(=O)c2ccc3c(c2)c2ccccc2n3CC)CC1`, the Potency was inconclusive: 50.1 µM [inhibitor, partial curve, poor fit]. For `CNC(=O)c1ccc2c(c1)OCCN(c1cccc(OC(F)(F)F)c1)C2`, the Potency was inconclusive: 63.1 µM [inhibitor, full curve]. In the case of `COc1ccc(CN2C[C@H]3CN(Cc4cccc(OC(F)(F)F)c4)CCN3C2=O)cc1`, the Potency was inconclusive: 50.1 µM [inhibitor, partial curve, poor fit]. For `Cc1ccc(F)cc1CN1CCC2(CCCO2)CCC1=O` (configuration not stated), the Potency was “inactive”. With `CC(C)NC(=O)C1COC2(CCN(C(=O)c3cccc(F)c3)CC2)N1C(=O)c1ccccc1` (configuration not stated) the Potency was “inactive”. In the case of `CN(C)c1cccc(-c2cn(C)c(=O)n3cc(COc4ccc(Cl)cc4)nc23)c1`, the Potency was inconclusive: 56.2 µM [inhibitor, full curve]. In the case of `CN1C(=O)[C@@H]2C[C@@H](O)CN2C2(CN(Cc3ccc(F)c(F)c3)C2)C1=O`, the Potency was “inactive”. With `CCC(CC)NC(=O)c1ccc(-c2nnc3ccc(NC(=O)C4CCC4)cn23)cc1` the Potency was inconclusive: 44.7 µM [inhibitor, partial curve, poor fit]. In the case of `Cc1ccc(C(=O)N2CCC3(CC2)CC(=O)c2ccc(Cl)cc2O3)cc1`, the Potency was inconclusive: 31.6 µM [inhibitor, partial curve, poor fit]. For `O=C(c1ccc2c(c1)OCO2)N1CCC2(CCCN(CCCc3ccccc3)C2)C1` (configuration not stated), the Potency was inconclusive: 56.2 µM [inhibitor, partial curve, poor fit]. For `Cc1ccc(F)cc1S(=O)(=O)N1CCC(CC(=O)NCc2ccccc2)C1` (configuration not stated), the Potency was inconclusive: 89.1 µM [inhibitor, single point]. For `Cc1noc(C)c1S(=O)(=O)N1CCCC(CO)CCNC(=O)CC1` (configuration not stated), the Potency was “inactive”. For `COc1ccc(-c2cc(C(=O)NCC[S+](C)(=O)[O-])c3c(c2)N(C)CCO3)cn1`, the Potency was inconclusive: 100 µM [inhibitor, partial curve, poor fit]. In the case of `COCCN1C(=O)CCC2(CNC(=O)COc3ccc(F)cc3)CCCC=C12` (configuration not stated), the Potency was “inactive”. With `COc1cccc(CNC(=O)C2CN(C3CCCCC3)C(=O)N2)c1` (configuration not stated) the Potency was “inactive”. In the case of `Cc1ccc(Cl)cc1NC(=O)Cn1nc2c(cc1=O)CCCCC2`, the Potency was inconclusive: 39.8 µM [inhibitor, partial curve, poor fit]. With `CC(=O)N1CCN(c2ncccc2CNCc2ccc(CC(C)C)cc2)CC1` the Potency was inconclusive: 79.4 µM [inhibitor, partial curve]. With `COc1cccc(CC(=O)NC2CCN(C(=O)c3cc4c(=O)[nH]c(C)cn4n3)CC2)c1` the Potency was “inactive”.
